Results as given in the supplement of paper PMC3334620.
In all, about 33,000 sequences were measured (“E-score (-0.5 to 0.5)”: median about -0.012, highest 2% from about 0.27 on). The list shows a part of the results.

These sequences were tested against T1, Vhr1 (UniProt P40522) (assay: PBM E-score (8-mer binding enrichment) (E-score (-0.5 to 0.5)); higher = stronger / more preferred TF binding; most listed sequences are background and not binding sites). Conditions: protein concentration: 200 nM; construct: GST-full length.
T1 sequence: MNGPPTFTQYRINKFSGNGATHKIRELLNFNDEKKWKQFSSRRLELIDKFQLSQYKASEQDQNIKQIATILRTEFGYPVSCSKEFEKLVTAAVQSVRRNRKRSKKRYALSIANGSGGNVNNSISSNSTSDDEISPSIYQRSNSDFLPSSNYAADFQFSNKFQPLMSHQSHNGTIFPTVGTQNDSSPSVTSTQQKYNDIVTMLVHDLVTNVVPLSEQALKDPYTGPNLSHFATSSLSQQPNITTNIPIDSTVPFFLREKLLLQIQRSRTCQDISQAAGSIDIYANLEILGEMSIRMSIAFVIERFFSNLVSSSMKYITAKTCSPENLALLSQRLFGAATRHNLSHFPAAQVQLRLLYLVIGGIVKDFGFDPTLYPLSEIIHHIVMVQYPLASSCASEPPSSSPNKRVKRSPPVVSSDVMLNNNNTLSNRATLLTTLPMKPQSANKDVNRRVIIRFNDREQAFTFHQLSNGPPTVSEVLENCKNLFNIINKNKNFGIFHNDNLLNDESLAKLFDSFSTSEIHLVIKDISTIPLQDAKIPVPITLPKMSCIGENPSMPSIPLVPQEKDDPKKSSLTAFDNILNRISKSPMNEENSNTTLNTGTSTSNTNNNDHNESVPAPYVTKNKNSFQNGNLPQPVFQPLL
In short: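 Yeast transcription factors, full-length or as DNA-binding domains, were expressed with a GST tag using PURExpress in vitro transcription/translation. At about 100-200 nM they were applied to universal all-10-mer Agilent arrays, double-stranded by primer extension on fresh or once-stripped slides. Fluorescent anti-GST detected bound protein, and masliner normalised the scans. E-scores for ungapped eight-base words, pooled with reverse complements, came from the Universal PBM Analysis Suite.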

Sequence	PBM E-score
ACGCGCCC	-0.0551
GGGTTACC	-0.032
ATATAAAC	0.121
CGCACGGC	-0.0492
AGTCGGCC	0.278
GGGTTTAA	-0.14
GTTGCGAA	-0.0321
TCGGGCAA	-0.165
AGACAGCG	-0.0643
GTCGGTAA	-0.113
ACATTCAG	-0.102
AGCCAGTA	0.133
AAATAAAA	-0.15
TAGATATA	0.0912
GAGGAATC	0.0804
AATAACCA	0.0138
AATACAAC	0.0738
CTTACCAC	-0.0307
ATGATTAC	0.391
AGCTCCTC	-0.282
CCGTGCCC	-0.125
AAACGAGT	0.178

Sequence	PBM E-score
AACGATGC	-0.267
AGTTTCAA	-0.124
CTCAATGC	-0.0586
ATGTTGAA	0.0174
CGACTTGC	0.104
TACAGCTA	0.024
CGTGAAAC	-0.243
ACAATGAT	0.197
GTGAGGAA	-0.038
ACGCAAAT	0.0646
TCCACGAA	0.0847
CATGAGGA	0.0735
CCCCACGA	0.0936
GACATTAA	-0.0904
AGTACGCG	0.0152
GACTCGGC	0.213
GCGTAATA	0.0801
TATCCCCA	0.0927
GAATAGTC	0.14
GTTCAATA	-0.00435
AAGATCCA	-0.00767
CTTTCTTA	-0.209

Sequence	PBM E-score
CTTCCGGA	-0.166
CGCCATCC	-0.0639
GTAAACAA	0.0447
ATGGGAAA	-0.149
CACTCCAA	-0.0718
CAAAAGTC	-0.13
ATAGCTCC	-0.107
GCTATACA	-0.0428
ACCATAGT	0.0959
GTGTCTTA	0.0499
AATTTACA	-0.166
AGTATACG	0.0162
CCCCTTAC	-0.0935
CAATAGCA	-0.121
ACTACGCC	-0.0476
ATAACATC	0.18
GCTTACGA	-0.203
CGTCTCAA	-0.0154
AAAGAAAA	-0.0932
GTAATAGA	-0.0372
ATTCTAAC	-0.0555
CCCTCCCA	0.236

Sequence	PBM E-score
AACAAGTA	-0.286
AACCTCTG	-0.0213
ACTGGGTC	-0.0808
TGGCGCCA	-0.0479
GGAAAGAA	-0.0899
ATGGTATA	0.095
TGCGCCAA	-0.115
CGGGGTCA	0.102
CCTGGGAC	-0.192
ATCTGGTC	0.0894
TGATGCAA	0.117
GACAAACA	0.0616
TGCCGACA	0.0737
CCATTGTA	0.179
TACAAGCA	0.126
AATGCACT	0.00935
ACGTATAT	0.0948
CCCGAAAC	-0.189
ATGATAGC	0.0539
GAAAGTCA	0.203
